This is one part of the list.

In this assay the target is T1, OsWOX13 (Oryza sativa, UniProt Q5QMM3 1-267).
T1 sequence: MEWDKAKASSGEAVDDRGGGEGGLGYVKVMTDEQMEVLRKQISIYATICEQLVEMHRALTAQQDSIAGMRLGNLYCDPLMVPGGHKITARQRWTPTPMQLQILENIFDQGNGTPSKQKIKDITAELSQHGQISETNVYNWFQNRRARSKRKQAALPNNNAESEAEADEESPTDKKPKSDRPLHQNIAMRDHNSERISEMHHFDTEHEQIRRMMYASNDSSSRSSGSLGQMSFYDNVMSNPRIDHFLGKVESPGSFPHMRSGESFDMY
The assay can be described thus: protein-binding microarray (RPBM); PBS, 2% BSA, 51.3 ng/ul salmon testes DNA, 50 uM zinc acetate, 200 nM TF, 25 C, 1 h; high values mean tight binding. Particulars: protein: recombinant; tags: N-terminal polyhistidine and DsRed monomer fusion (pET32a); label: CyDye5-dUTP incorporated in the synthesized complementary strand; 3' TTTTT single-stranded linker to array surface; dsDNA, one strand shown. The essentials:
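The binding signal is fluorescence intensity per array feature (arbitrary units). Readings came from an Axon 4000B scanner after a washed, 2% BSA-blocked, double-stranded custom Agilent array had been incubated for 1 h at 25 °C with 200 nM protein and 50 µM zinc acetate. The protein was a Ni–NTA-purified transcription factor fused N-terminally to polyhistidine and DsRed, expressed in E. coli BL21-CodonPlus.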
Regarding “CGGATGATTTAGTTTCATCACAACAACCTAACCAGTTGATCGGAGTCACCTAGTGCAG”, the binding signal was 15000 fluorescence intensity (a.u.).

In the case of “TCCAATCTAATCCAATTTATTGCTTGTGTTCTGCGTACTGCGGAGTCACCTAGTGCAG”, the binding signal is 9760 fluorescence intensity (a.u.).

Turning to “AGTTTACAGAAAACATGATTTTCTCTAATGATGTTACAGACGGAGTCACCTAGTGCAG”, the binding signal is 3740 fluorescence intensity (a.u.).

On to “TTGATCATGATGATATTTAATTTGTTTAGATCACACACTACGGAGTCACCTAGTGCAG”, for which the binding signal was 10200 fluorescence intensity (a.u.).

Regarding “CTTGATTACCGTCATTAGTCAAAATCGCAGTTCACATCATCGGAGTCACCTAGTGCAG”, the binding signal was 37400 fluorescence intensity (a.u.).

As for “GTGATTAACACATTCCACTTCCGAGTTCTTACAATGGTTCCGGAGTCACCTAGTGCAG”, the binding signal was 6780 fluorescence intensity (a.u.).

Regarding “GTCATATAATTGCAACAAATATACTCCTAGCTCGCTCTCTCGGAGTCACCTAGTGCAG”, the binding signal was 13000 fluorescence intensity (a.u.).

Consider “CCTTGCGGTTCAATCAACGTTCCAAGTTCAACGATCATGTCGGAGTCACCTAGTGCAG”, for which the binding signal was 9270 fluorescence intensity (a.u.).

Consider “CGTTGTTTTCATGATTGTCACCATATGTGGTCTGCATTATCGGAGTCACCTAGTGCAG”, for which the binding signal was 6200 fluorescence intensity (a.u.).

On to “ATGATTTGTGGTAAGACAGTAGCAAATCAAAGCATCGGCTCGGAGTCACCTAGTGCAG”, for which the binding signal is 10600 fluorescence intensity (a.u.).

Regarding “ACGATGATTGCGCAGCGTACAAGTCAAGGCCAAGTCGTCGCGGAGTCACCTAGTGCAG”, the binding signal is 37000 fluorescence intensity (a.u.).

On to “TATAATAGATAAATAAATGCATGTTTACTTTTATTATAGTCGGAGTCACCTAGTGCAG”, for which the binding signal is 17300 fluorescence intensity (a.u.).

With “GTCACTGATAGGTATCATCCGTGACGGGCTTAGGTTTTATCGGAGTCACCTAGTGCAG”, the binding signal is 6180 fluorescence intensity (a.u.).

Consider “GACCATGATTAGCCATAAGTGCTACAGTAACCCACGTGTGCGGAGTCACCTAGTGCAG”, for which the binding signal was 32200 fluorescence intensity (a.u.).

For the sequence “GTCTAGATTATTAGTACGAATATATCACATCCGGTTTTAGCGGAGTCACCTAGTGCAG”, the binding signal is 7510 fluorescence intensity (a.u.).

With “CTGACTGGCTCTGATTAATTAATTGATGATCGATCGAGCGCGGAGTCACCTAGTGCAG”, the binding signal was 49800 fluorescence intensity (a.u.).

As for “AAATGGGAGAATGTTATGATTGGTTGAGAAGTGGAGGTAGCGGAGTCACCTAGTGCAG”, the binding signal was 3540 fluorescence intensity (a.u.).

As to “CTCAATTAATTGTGCTCATTGCATTATTCTTGTTAGACAGCGGAGTCACCTAGTGCAG”, the binding signal is 35600 fluorescence intensity (a.u.).

For the sequence “CACCCCGTTGATTATGAAATTTTGTGTCAATGCTCTATGACGGAGTCACCTAGTGCAG”, the binding signal is 28400 fluorescence intensity (a.u.).

On to “ACTGAATGATGTCGACACCTGAATGTTTAACAATTGCTAGCGGAGTCACCTAGTGCAG”, for which the binding signal is 8650 fluorescence intensity (a.u.).

For the sequence “TCAAATTTCGATATGATAGATTAAATGTGTTGTTGCCAAACGGAGTCACCTAGTGCAG”, the binding signal was 9350 fluorescence intensity (a.u.).

On to “CTGATTACACGAAATACGCATACATGCACACCATGCTCACCGGAGTCACCTAGTGCAG”, for which the binding signal is 7300 fluorescence intensity (a.u.).

On to “TTAATTGCATGAAAATATGTTAGAGCATCTCCAAGAGGTACGGAGTCACCTAGTGCAG”, for which the binding signal was 7380 fluorescence intensity (a.u.).

On to “CTCCCAATTAATATCAATCCAAATACATTACTTACATTGTCGGAGTCACCTAGTGCAG”, for which the binding signal is 36100 fluorescence intensity (a.u.).

As to “ATTTAAATAAAACTAATTGCACAGTTAGAGGGGAAATCGCCGGAGTCACCTAGTGCAG”, the binding signal is 19100 fluorescence intensity (a.u.).

Take “CTTGATGATTAATCAATTCAATCTTGGCTGTCATGAGAGGCGGAGTCACCTAGTGCAG”: the binding signal was 62000 fluorescence intensity (a.u.).

“CAAGAAATTATTAAGTAATTTTCATACTTATCATGTTCACCGGAGTCACCTAGTGCAG”: the binding signal was 10400 fluorescence intensity (a.u.).

“AAAGATTTGTCTCGCAAATTGGTCGCAATCTATGCAATTACGGAGTCACCTAGTGCAG”: the binding signal was 5100 fluorescence intensity (a.u.).

Consider “GAGAATCAATCATGCGGTTTCTGCACTAGCATGTTACTCCCGGAGTCACCTAGTGCAG”, for which the binding signal was 19000 fluorescence intensity (a.u.).

On to “ATGTAATGATTGTTTCACCTTAATAGGGAAATTGTTATCCCGGAGTCACCTAGTGCAG”, for which the binding signal was 47400 fluorescence intensity (a.u.).

Turning to “AATACTTATTAATAATTAACATGTGTTAATTCATTGCTTCCGGAGTCACCTAGTGCAG”, the binding signal is 13400 fluorescence intensity (a.u.).

For the sequence “CATAAATTTTGCATAAACAAATCATATTTACCTTCTAAAACGGAGTCACCTAGTGCAG”, the binding signal is 11000 fluorescence intensity (a.u.).

Take “TTGGGTGGCAATTATTAATCAGTCATGTCATTCAACTAGACGGAGTCACCTAGTGCAG”: the binding signal was 11700 fluorescence intensity (a.u.).

For “TATAAATAGGCTATTAGATTAGCTATAGATGGTTTAGAGCCGGAGTCACCTAGTGCAG”, the binding signal was 23000 fluorescence intensity (a.u.).

Consider “AGTAATTAAATTCATTCAACTCTCGTTCTCCCATATATTGCGGAGTCACCTAGTGCAG”, for which the binding signal is 30800 fluorescence intensity (a.u.).

“CATAATCTGATGTGTTATTATTGATCTATGTAGAGGACACCGGAGTCACCTAGTGCAG”: the binding signal was 8240 fluorescence intensity (a.u.).

For “TGCTAATGATGGATTAATTAAGCTTAATAAATTCATCTCGCGGAGTCACCTAGTGCAG”, the binding signal is 53700 fluorescence intensity (a.u.).

As for “TCTGATATATATATATATATATATATAACATCAGGGAGGACGGAGTCACCTAGTGCAG”, the binding signal was 4830 fluorescence intensity (a.u.).

Regarding “ATTAACTATAGATGATTTGGAGCTAGTAGTTGGCTATACCCGGAGTCACCTAGTGCAG”, the binding signal is 17100 fluorescence intensity (a.u.).

With “AAAATAATTTGAATATATTGCTACCTGAAATTTGGATAATCGGAGTCACCTAGTGCAG”, the binding signal was 6150 fluorescence intensity (a.u.).

Regarding “TCCATAACAAATTGACAAGTGACCTATCTATCCACATGTCCGGAGTCACCTAGTGCAG”, the binding signal is 43600 fluorescence intensity (a.u.).

Take “ATATCTTGTCGCTTTCTCAATCAACAATTTGCGTTAACTTCGGAGTCACCTAGTGCAG”: the binding signal was 5810 fluorescence intensity (a.u.).

These data come from publication PMC7819943, “Rice protein-binding microarrays: a tool to detect cis-acting elements near promoter regions in rice”.
